# Measurements: the supplement of paper PMC8728848
# This is one part of the list.
# Columns and labels:
# Assay in all cases: glycan array binding signal (z-score within array); higher = stronger binding
# Conditions in all cases: glycan notation: IUPAC condensed, linker removed
# [1] = target: Neu5Ac(a2-3)Gal
# Method in brief: (§1)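 Glycan array data were curated from 3228 arrays in the Consortium for Functional Glycomics database and kept only where the protein sequence was available. Glycan names were converted to IUPAC-condensed notation, and columns mapping to the same glycan were averaged. The binding signal is a within-array Z-score, averaged across arrays of the same protein sequence at different concentrations or buffers and across linkers. Negative Z-scores can be read as non-binding.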
# [2] = target: Neu5Ac(a2-3)Gal(b1-3)GalNAc
# Method in brief: as §1
# [3] = target: Neu5Ac(a2-3)Gal(b1-3)GalNAc(b1-3)Gal(a1-4)Gal(b1-4)Glc
# Method in brief: as §1
# [4] = target: Neu5Ac(a2-3)Gal(b1-3)GalNAc(b1-4)[Neu5Ac(a2-3)]Gal(b1-4)Glc
# Method in brief: as §1
# [5] = target: Neu5Ac(a2-3)Gal(b1-3)GalNAc(b1-4)[Neu5Ac(a2-8)Neu5Ac(a2-3)]Gal(b1-4)Glc
# Method in brief: as §1
# [6] = target: Neu5Ac(a2-3)Gal(b1-3)GalNAc6S
# Method in brief: as §1
# [7] = target: Neu5Ac(a2-3)Gal(b1-3)GlcNAc
# Method in brief: as §1
# [8] = target: Neu5Ac(a2-3)Gal(b1-3)GlcNAc(b1-2)Man
# Method in brief: as §1
# [9] = target: Neu5Ac(a2-3)Gal(b1-3)GlcNAc(b1-2)Man(a1-3)[GlcNAc(b1-4)][Neu5Ac(a2-3)Gal(b1-3)GlcNAc(b1-2)Man(a1-6)]Man(b1-4)GlcNAc(b1-4)GlcNAc
# Method in brief: as §1
# [10] = target: Neu5Ac(a2-3)Gal(b1-3)GlcNAc(b1-2)Man(a1-3)[Neu5Ac(a2-3)Gal(b1-3)GlcNAc(b1-2)Man(a1-6)]Man(b1-4)GlcNAc(b1-4)GlcNAc
# Method in brief: as §1
# [11] = target: Neu5Ac(a2-3)Gal(b1-3)GlcNAc(b1-3)Gal(b1-3)GlcNAc
# Method in brief: as §1
# [12] = target: Neu5Ac(a2-3)Gal(b1-3)GlcNAc(b1-3)Gal(b1-4)GlcNAc
# Method in brief: as §1
# [13] = target: Neu5Ac(a2-3)Gal(b1-3)GlcNAc(b1-3)GalNAc
# Method in brief: as §1
# [14] = target: Neu5Ac(a2-3)Gal(b1-3)GlcNAc(b1-4)Gal(b1-4)Glc
# Method in brief: as §1
# [15] = target: Neu5Ac(a2-3)Gal(b1-3)GlcNAc(b1-6)GalNAc
# Method in brief: as §1
# [16] = target: Neu5Ac(a2-3)Gal(b1-3)GlcNAc6S
# Method in brief: as §1
# [17] = target: Neu5Ac(a2-3)Gal(b1-3)[Fuc(a1-4)]GlcNAc
# Method in brief: as §1
# [18] = target: Neu5Ac(a2-3)Gal(b1-3)[Fuc(a1-4)]GlcNAc(b1-3)Gal(b1-3)[Fuc(a1-4)]GlcNAc
# Method in brief: as §1
# [19] = target: Neu5Ac(a2-3)Gal(b1-3)[Fuc(a1-4)]GlcNAc(b1-3)Gal(b1-4)[Fuc(a1-3)]GlcNAc
# Method in brief: as §1
# [20] = target: Neu5Ac(a2-3)Gal(b1-3)[GlcNAc(b1-6)]GalNAc
# Method in brief: as §1
# [21] = target: Neu5Ac(a2-3)Gal(b1-3)[Neu5Ac(a2-6)]GalNAc
# Method in brief: as §1
# [22] = target: Neu5Ac(a2-3)Gal(b1-3)[Neu5Ac(a2-6)]GlcNAc(b1-3)[Fuc(a1-3)[Gal(b1-4)]GlcNAc(b1-6)]Gal(b1-4)Glc
# Method in brief: as §1
# [23] = target: Neu5Ac(a2-3)Gal(b1-3)]Neu5Ac(a2-3)Gal(b1-4)]GlcNAc
# Method in brief: as §1
# [24] = target: Neu5Ac(a2-3)Gal(b1-4)Glc
# Method in brief: as §1
# [25] = target: Neu5Ac(a2-3)Gal(b1-4)GlcNAc
# Method in brief: as §1
# [26] = target: Neu5Ac(a2-3)Gal(b1-4)GlcNAc(b1-2)Man
# Method in brief: as §1
# [27] = target: Neu5Ac(a2-3)Gal(b1-4)GlcNAc(b1-2)Man(a1-3)[GlcNAc(b1-4)][Neu5Ac(a2-3)Gal(b1-4)GlcNAc(b1-2)Man(a1-6)]Man(b1-4)GlcNAc(b1-4)GlcNAc
# Method in brief: as §1
# [28] = target: Neu5Ac(a2-3)Gal(b1-4)GlcNAc(b1-2)Man(a1-3)[Neu5Ac(a2-3)Gal(b1-4)GlcNAc(b1-2)Man(a1-6)]Man(b1-4)GlcNAc(b1-4)GlcNAc
# Method in brief: as §1
# [29] = target: Neu5Ac(a2-3)Gal(b1-4)GlcNAc(b1-2)Man(a1-3)[Neu5Ac(a2-3)Gal(b1-4)GlcNAc(b1-2)Man(a1-6)]Man(b1-4)GlcNAc(b1-4)[Fuc(a1-6)]GlcNAc
# Method in brief: as §1
# [30] = target: Neu5Ac(a2-3)Gal(b1-4)GlcNAc(b1-2)Man(a1-3)[Neu5Ac(a2-6)Gal(b1-4)GlcNAc(b1-2)Man(a1-6)]Man(b1-4)GlcNAc(b1-4)GlcNAc
# Method in brief: as §1
# [31] = target: Neu5Ac(a2-3)Gal(b1-4)GlcNAc(b1-2)[Neu5Ac(a2-3)Gal(b1-4)GlcNAc(b1-4)]Man(a1-3)[GlcNAc(b1-4)][Neu5Ac(a2-3)Gal(b1-4)GlcNAc(b1-2)[Neu5Ac(a2-3)Gal(b1-4)GlcNAc(b1-6)]Man(a1-6)]Man(b1-4)GlcNAc(b1-4)GlcNAc
# Method in brief: as §1
# [32] = target: Neu5Ac(a2-3)Gal(b1-4)GlcNAc(b1-2)[Neu5Ac(a2-3)Gal(b1-4)GlcNAc(b1-4)]Man(a1-3)[GlcNAc(b1-4)][Neu5Ac(a2-3)Gal(b1-4)GlcNAc(b1-4)Man(a1-6)]Man(b1-4)GlcNAc(b1-4)GlcNAc
# Method in brief: as §1
# [33] = target: Neu5Ac(a2-3)Gal(b1-4)GlcNAc(b1-2)[Neu5Ac(a2-3)Gal(b1-4)GlcNAc(b1-6)]Man(a1-6)[Neu5Ac(a2-3)Gal(b1-4)GlcNAc(b1-2)Man(a1-3)]Man(b1-4)GlcNAc(b1-4)GlcNAc
# Method in brief: as §1
# [34] = target: Neu5Ac(a2-3)Gal(b1-4)GlcNAc(b1-2)[Neu5Ac(a2-3)Gal(b1-4)GlcNAc(b1-6)]Man(a1-6)[Neu5Ac(a2-3)Gal(b1-4)GlcNAc(b1-2)Man(a1-3)][GlcNAc(b1-4)]Man(b1-4)GlcNAc(b1-4)GlcNAc
# Method in brief: as §1
# [35] = target: Neu5Ac(a2-3)Gal(b1-4)GlcNAc(b1-3)Gal
# Method in brief: as §1
# [36] = target: Neu5Ac(a2-3)Gal(b1-4)GlcNAc(b1-3)Gal(b1-3)GlcNAc
# Method in brief: as §1
# [37] = target: Neu5Ac(a2-3)Gal(b1-4)GlcNAc(b1-3)Gal(b1-4)GlcNAc
# Method in brief: as §1
binder,measurement,setting,value
"CC1G-11630 (Coprinopsis cinerea), A8P462 (protein) MTTEAKIKLKAVVYWELVFDYDNSSNTGEITQSYTVKISQTSTRSTFASEVSTTTIDTLTKNNQEVDVGASYGAISANVSASWEHSEEVNNMLEKTTQTSTEDTYTVETEETRSYTIGPGGMLSLFQKHFSGPGMHVAFDVFTTDLELAKERTEIDIDVDVEAIRFVREIRVVYTDIMSEAPGDHVREINGKNPDINYGFNGKFVWLVPEQTRKTAQALTNVEFVSQAESDDRYWDLAAGAGGSNRYLIPVYDTNNKDKIYELALWRSDSYITHDKVKAAGWSGTTGDINSGRGGTYLNLVWKTRHAY",glycan array binding signal (z-score),[1],-0.049
same,glycan array binding signal (z-score),[2],-0.519
same,glycan array binding signal (z-score),[3],-0.43
same,glycan array binding signal (z-score),[4],-0.253
same,glycan array binding signal (z-score),[5],-0.126
same,glycan array binding signal (z-score),[6],-0.156
same,glycan array binding signal (z-score),[7],-0.105
same,glycan array binding signal (z-score),[8],1.26
same,glycan array binding signal (z-score),[9],0.293
same,glycan array binding signal (z-score),[10],1.27
same,glycan array binding signal (z-score),[11],-0.397
same,glycan array binding signal (z-score),[12],-0.231
same,glycan array binding signal (z-score),[13],-0.329
same,glycan array binding signal (z-score),[14],-0.026
same,glycan array binding signal (z-score),[15],-0.25
same,glycan array binding signal (z-score),[16],0.714
same,glycan array binding signal (z-score),[17],-0.138
same,glycan array binding signal (z-score),[18],-0.022
same,glycan array binding signal (z-score),[19],-0.024
same,glycan array binding signal (z-score),[20],0.149
same,glycan array binding signal (z-score),[21],-0.04
same,glycan array binding signal (z-score),[22],-0.796
same,glycan array binding signal (z-score),[23],0.28
same,glycan array binding signal (z-score),[24],-0.12
same,glycan array binding signal (z-score),[25],-0.323
same,glycan array binding signal (z-score),[26],1.79
same,glycan array binding signal (z-score),[27],-0.123
same,glycan array binding signal (z-score),[28],-0.556
same,glycan array binding signal (z-score),[29],-0.466
same,glycan array binding signal (z-score),[30],-0.711
same,glycan array binding signal (z-score),[31],-0.403
same,glycan array binding signal (z-score),[32],-0.701
same,glycan array binding signal (z-score),[33],-0.549
same,glycan array binding signal (z-score),[34],-0.379
same,glycan array binding signal (z-score),[35],-0.788
same,glycan array binding signal (z-score),[36],-0.449
same,glycan array binding signal (z-score),[37],-0.528
